{"source": "paper PMC4336329", "about": "(PLoS ONE, 2015)", "note": "Among all 310,000 compounds or so, about 2,200 (0.71%) showed an effect of 50% or more. Effects have a minus sign here. Some of the results follow."}
{"target": "human ether-à-go-go-related gene (hERG) potassium channel (human, UniProt Q12809)", "sequence (Q12809 whole entry, looked up)": "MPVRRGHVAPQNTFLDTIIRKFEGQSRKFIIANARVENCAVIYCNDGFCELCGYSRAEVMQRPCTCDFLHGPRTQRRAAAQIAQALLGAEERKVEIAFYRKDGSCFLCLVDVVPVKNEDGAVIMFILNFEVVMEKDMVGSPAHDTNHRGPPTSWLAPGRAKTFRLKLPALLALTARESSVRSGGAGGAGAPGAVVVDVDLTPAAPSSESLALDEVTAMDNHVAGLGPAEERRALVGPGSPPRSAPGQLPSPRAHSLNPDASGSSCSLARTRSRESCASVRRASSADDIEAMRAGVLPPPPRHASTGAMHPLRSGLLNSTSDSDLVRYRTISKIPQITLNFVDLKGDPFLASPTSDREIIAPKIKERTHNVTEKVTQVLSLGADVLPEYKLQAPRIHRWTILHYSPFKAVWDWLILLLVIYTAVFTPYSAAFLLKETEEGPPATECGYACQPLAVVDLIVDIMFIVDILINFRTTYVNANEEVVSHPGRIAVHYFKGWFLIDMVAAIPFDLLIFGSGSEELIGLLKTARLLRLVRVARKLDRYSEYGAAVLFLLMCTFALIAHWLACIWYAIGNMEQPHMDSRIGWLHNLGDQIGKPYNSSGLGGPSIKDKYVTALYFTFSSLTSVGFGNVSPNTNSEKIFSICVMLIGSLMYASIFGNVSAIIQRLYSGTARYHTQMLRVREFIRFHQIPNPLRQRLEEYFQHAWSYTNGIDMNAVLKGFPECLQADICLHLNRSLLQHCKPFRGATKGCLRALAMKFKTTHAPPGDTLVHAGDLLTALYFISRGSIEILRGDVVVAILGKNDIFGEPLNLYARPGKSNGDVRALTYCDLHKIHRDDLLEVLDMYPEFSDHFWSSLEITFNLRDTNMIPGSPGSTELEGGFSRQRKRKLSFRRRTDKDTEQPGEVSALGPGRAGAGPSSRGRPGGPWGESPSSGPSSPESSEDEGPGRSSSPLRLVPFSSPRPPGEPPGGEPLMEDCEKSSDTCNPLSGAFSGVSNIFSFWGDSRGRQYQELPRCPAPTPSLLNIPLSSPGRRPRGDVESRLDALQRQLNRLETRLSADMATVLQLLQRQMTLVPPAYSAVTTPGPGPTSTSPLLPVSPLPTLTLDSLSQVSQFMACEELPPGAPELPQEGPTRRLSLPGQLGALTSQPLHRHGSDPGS", "experiment": "primary screen, population patch clamp on CHO cells stably expressing hERG", "units": {"hERG current change (%, negative = inhibition) at 1uM": "%"}}
{"smiles": "COc1ccc(N2CCN(CCNC(=O)c3ccc(NC(=O)C4CCCO4)cc3)CC2)cc1", "note": "(stereo not drawn)", "hERG current change (%, negative = inhibition) at 1uM": 11}
{"smiles": "COc1cccc(/C=N/NC(=O)c2nc(-c3ccccc3)cc(-c3ccccc3)n2)c1", "hERG current change (%, negative = inhibition) at 1uM": 1.15}
{"smiles": "CCOc1cc(-c2noc(CCC(=O)Nc3cccnc3)n2)ccc1OC", "hERG current change (%, negative = inhibition) at 1uM": 14.1}
{"smiles": "CCOC(=O)c1ccc(NC(=O)CCC(CC)C(=O)O)cc1", "note": "(stereo not drawn)", "hERG current change (%, negative = inhibition) at 1uM": 9.56}
{"smiles": "CCc1ccc(-c2cc(C)no2)cc1S(=O)(=O)Nc1ccc(C)cn1", "hERG current change (%, negative = inhibition) at 1uM": 7.95}
{"smiles": "CC1CCc2nc(NC(=O)CSc3nc4ccccc4o3)sc2C1", "note": "(stereo not drawn)", "hERG current change (%, negative = inhibition) at 1uM": 11.9}
{"smiles": "Nc1nnc(CSCc2ccc(F)cc2)s1", "hERG current change (%, negative = inhibition) at 1uM": 4.93}
{"smiles": "O=C1Nc2cc(C(=O)N3CCN(c4ccccc4F)CC3)ccc2NC1CSCc1ccccc1F", "note": "(stereo not drawn)", "hERG current change (%, negative = inhibition) at 1uM": 16}
{"smiles": "CCOC(=O)c1c(-n2c(C)cc(/C=C3\\C(=O)NC(=O)N(C)C3=O)c2C)sc2c1CCCC2", "hERG current change (%, negative = inhibition) at 1uM": 13.4}
{"smiles": "CC(=O)c1sc(NC(=O)c2c(F)cccc2F)nc1-c1ccccc1", "hERG current change (%, negative = inhibition) at 1uM": -1.47}
{"smiles": "CCN(CC)CCNC(=O)CCc1c(C)nc2c(c(C)nn2-c2ccc(C)c(C)c2)c1C", "hERG current change (%, negative = inhibition) at 1uM": -5.53}
{"smiles": "NC(=O)c1c(NC(=O)c2ccc(S(=O)(=O)N(CCCl)CCCl)cc2)sc2c1CCCCC2", "hERG current change (%, negative = inhibition) at 1uM": 11.9}
{"smiles": "O=C(Cn1c(=O)oc2cc(S(=O)(=O)N3CCCC3)ccc21)Nc1ccccc1Br", "hERG current change (%, negative = inhibition) at 1uM": 10.7}
{"smiles": "COc1ccc(/C=N/c2nc3ccccc3n2C)cc1OC", "hERG current change (%, negative = inhibition) at 1uM": 2.4}
{"smiles": "CCOC(=O)c1[nH]c(CN2CCN(c3ccc(OC)cc3)CC2)c(C(=O)OCC)c1C", "hERG current change (%, negative = inhibition) at 1uM": 5.02}
{"smiles": "COC(=O)c1sccc1NC(=O)c1cccc(OC)c1", "hERG current change (%, negative = inhibition) at 1uM": 13.8}
{"smiles": "O=C(COc1ccc(S(=O)(=O)N2CCCC2)cc1Cl)NC1CC1", "hERG current change (%, negative = inhibition) at 1uM": 0.0948}
{"smiles": "CN(CC(=O)Nc1ccc(F)c(F)c1F)C(=O)C1CCCO1", "note": "(stereo not drawn)", "hERG current change (%, negative = inhibition) at 1uM": 8.71}
{"smiles": "O=C(CSc1nnnn1C1CCCC1)N1CCOCC1", "hERG current change (%, negative = inhibition) at 1uM": 19}
{"smiles": "O=C(Nc1ccc(F)cc1)Nc1cccnc1Cl", "hERG current change (%, negative = inhibition) at 1uM": 7.39}
{"smiles": "CCN(CC)S(=O)(=O)c1ccc(C(=O)NCCc2cc3c(OC)ccc(OC)c3[nH]c2=O)cc1", "hERG current change (%, negative = inhibition) at 1uM": -9.11}
{"smiles": "CN1CCN(c2ccc(NC(=O)COc3ccccc3[N+](=O)[O-])cc2)CC1", "hERG current change (%, negative = inhibition) at 1uM": 8.45}
{"smiles": "CCOc1ccccc1-n1c(COc2ccccc2)nnc1SCC(N)=O", "hERG current change (%, negative = inhibition) at 1uM": 8.48}
{"smiles": "Cn1nnnc1SCc1ccc(C(=O)Nc2nccs2)cc1", "hERG current change (%, negative = inhibition) at 1uM": -0.552}
{"smiles": "Cc1cccc(C)c1NC(=O)CSC(=O)c1sc2ccccc2c1Cl", "hERG current change (%, negative = inhibition) at 1uM": 20.1}
{"smiles": "Cc1ccc(NC(=O)NNc2cccc(Cl)n2)cc1", "hERG current change (%, negative = inhibition) at 1uM": -6.33}
{"smiles": "CCCCCC(=O)N/N=C(\\C)c1ccccn1", "hERG current change (%, negative = inhibition) at 1uM": -1.57}
{"smiles": "CN(CCCC1CCCC1)C(=O)c1cc(COc2c(F)cccc2F)on1", "hERG current change (%, negative = inhibition) at 1uM": 0.357}
{"smiles": "COc1ccc(CNC(=O)Cn2nc(C)c3c(C)n(-c4ccc(C)cc4)nc3c2=O)cc1OC", "hERG current change (%, negative = inhibition) at 1uM": 15.7}
{"smiles": "CCC(=O)N1CCN(c2ccccc2NC(=S)NC(=O)c2cccc([N+](=O)[O-])c2)CC1", "hERG current change (%, negative = inhibition) at 1uM": -33.5}
{"smiles": "Cc1cc(C)c2c(=O)[nH]c(SCc3ccccc3)nc2n1", "hERG current change (%, negative = inhibition) at 1uM": 3.77}
{"smiles": "CCOc1ccc2oc(-c3ccccc3)c(C(=O)O)c2c1", "hERG current change (%, negative = inhibition) at 1uM": 9.3}
{"smiles": "COc1ccc(NC(=S)NCc2ccc3c(c2)OCO3)cc1", "hERG current change (%, negative = inhibition) at 1uM": 15.5}
{"smiles": "CCOc1ccc(S(=O)(=O)Nc2cccc(C(=O)N(C)Cc3cccc(OC)c3OC)c2)cc1", "hERG current change (%, negative = inhibition) at 1uM": -11.9}
{"smiles": "Cc1cc(C(F)(F)F)nc(SCc2ccc(C(=O)O)o2)n1", "hERG current change (%, negative = inhibition) at 1uM": -2.85}
{"smiles": "Cc1oc(-c2ccccc2F)nc1CSCC(=O)NC1CC1", "hERG current change (%, negative = inhibition) at 1uM": 7.06}
{"smiles": "CC1(/[N+]([O-])=C/c2ccc(Cl)cc2Cl)CCCCC1=O", "note": "(stereo not drawn)", "hERG current change (%, negative = inhibition) at 1uM": 10.5}
{"smiles": "CC(=O)C(C(C)=O)C(c1ccccc1)c1nc2ccccc2[nH]c1=O", "note": "(stereo not drawn)", "hERG current change (%, negative = inhibition) at 1uM": 9.57}
{"smiles": "CC[n+]1c(/C=C2/C=C(C)CC(C)C2)sc2ccccc21.[I-]", "note": "(stereo not drawn)", "hERG current change (%, negative = inhibition) at 1uM": 12.9}
{"smiles": "O=C(Nc1cc(Cl)ccc1-n1cncn1)C1CC1", "hERG current change (%, negative = inhibition) at 1uM": 5.31}
{"smiles": "O=C(O)Cn1cc(CN2CCOCC2)c2ccccc21", "hERG current change (%, negative = inhibition) at 1uM": 12.5}
{"smiles": "Cc1ccc(C(=O)Nc2nn(C)c3cccc(F)c23)cc1", "hERG current change (%, negative = inhibition) at 1uM": 8.68}
{"smiles": "c1ccc2c(c1)[nH]c1c(NCC3CCCO3)ncnc12", "note": "(stereo not drawn)", "hERG current change (%, negative = inhibition) at 1uM": 14.2}
{"smiles": "COc1ccccc1CNC(=O)CCS(=O)(=O)c1ccc2c(c1)CCN2C(C)=O", "hERG current change (%, negative = inhibition) at 1uM": 20.6}
{"smiles": "Cc1cc(Br)c(OCC(=O)NN)c2c1CCC2", "hERG current change (%, negative = inhibition) at 1uM": 10.9}
{"smiles": "CC(=O)c1c(C)[nH]c(C(=O)COc2ccc(C#N)cc2)c1C", "hERG current change (%, negative = inhibition) at 1uM": 0.947}
{"smiles": "CCOc1cccc2c1OC1(C)CC2NC(=O)N1c1cccc(F)c1", "note": "(stereo not drawn)", "hERG current change (%, negative = inhibition) at 1uM": 14.4}
{"smiles": "CC(=O)N(Cc1cc2cc(C)c(C)cc2n2nnnc12)CC1COCCO1", "note": "(stereo not drawn)", "hERG current change (%, negative = inhibition) at 1uM": -6.09}
{"smiles": "COc1cc(/C=C/C(=O)O)cc(S(=O)(=O)Nc2ccccc2SC)c1OC", "hERG current change (%, negative = inhibition) at 1uM": 13.9}
{"smiles": "COc1ccc(S(=O)(=O)N2CCc3ccccc32)cc1C(=O)NC1(C)CCS(=O)(=O)C1", "note": "(stereo not drawn)", "hERG current change (%, negative = inhibition) at 1uM": 14.1}
{"smiles": "CC12CCC(C(=O)N3CCN(c4ccccc4)CC3)(CC1=O)C2(C)C", "note": "(stereo not drawn)", "hERG current change (%, negative = inhibition) at 1uM": 7.53}
{"smiles": "O=C(c1cc2c(ccc3ccccc32)o1)N1CCCCC1", "hERG current change (%, negative = inhibition) at 1uM": 14.4}
{"smiles": "Cn1c(SCc2cc(=O)[nH]c3ccccc23)nnc1-c1ccc(Br)cc1", "hERG current change (%, negative = inhibition) at 1uM": 7.32}
{"smiles": "CC(=O)Oc1ccc2occ(-c3ccccc3)c2c1", "hERG current change (%, negative = inhibition) at 1uM": 16}
{"smiles": "Cc1ccc(C(c2nnnn2CS(=O)(=O)c2ccc(C)cc2)N2CCC(C)CC2)cc1", "note": "(stereo not drawn)", "hERG current change (%, negative = inhibition) at 1uM": 7.16}
{"smiles": "COc1ccc(/C=N/Nc2cc(N(C)C)nc(N(C)C)n2)cc1", "hERG current change (%, negative = inhibition) at 1uM": 3.84}
{"smiles": "O=C(O)CCCCCn1c(SCC(=O)N2CCCC2)nc2ccsc2c1=O", "hERG current change (%, negative = inhibition) at 1uM": 13.9}
